# From article PMC4336329 (PLoS ONE, 2015)
# The whole screen tested about 310,000 compounds, of which about 14,000 (4.5%) showed an effect of 50% or more. The effect is printed as a negative number. This is one part of the list.
# Target: human ether-à-go-go-related gene (hERG) potassium channel (human, UniProt Q12809)
# Assay: primary screen, population patch clamp on CHO cells stably expressing hERG
# 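Note: peak tail current of the secondary pulse compared with the same well before compound.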
# human ether-à-go-go-related gene (hERG) potassium channel, sequence (Q12809 whole entry, looked up): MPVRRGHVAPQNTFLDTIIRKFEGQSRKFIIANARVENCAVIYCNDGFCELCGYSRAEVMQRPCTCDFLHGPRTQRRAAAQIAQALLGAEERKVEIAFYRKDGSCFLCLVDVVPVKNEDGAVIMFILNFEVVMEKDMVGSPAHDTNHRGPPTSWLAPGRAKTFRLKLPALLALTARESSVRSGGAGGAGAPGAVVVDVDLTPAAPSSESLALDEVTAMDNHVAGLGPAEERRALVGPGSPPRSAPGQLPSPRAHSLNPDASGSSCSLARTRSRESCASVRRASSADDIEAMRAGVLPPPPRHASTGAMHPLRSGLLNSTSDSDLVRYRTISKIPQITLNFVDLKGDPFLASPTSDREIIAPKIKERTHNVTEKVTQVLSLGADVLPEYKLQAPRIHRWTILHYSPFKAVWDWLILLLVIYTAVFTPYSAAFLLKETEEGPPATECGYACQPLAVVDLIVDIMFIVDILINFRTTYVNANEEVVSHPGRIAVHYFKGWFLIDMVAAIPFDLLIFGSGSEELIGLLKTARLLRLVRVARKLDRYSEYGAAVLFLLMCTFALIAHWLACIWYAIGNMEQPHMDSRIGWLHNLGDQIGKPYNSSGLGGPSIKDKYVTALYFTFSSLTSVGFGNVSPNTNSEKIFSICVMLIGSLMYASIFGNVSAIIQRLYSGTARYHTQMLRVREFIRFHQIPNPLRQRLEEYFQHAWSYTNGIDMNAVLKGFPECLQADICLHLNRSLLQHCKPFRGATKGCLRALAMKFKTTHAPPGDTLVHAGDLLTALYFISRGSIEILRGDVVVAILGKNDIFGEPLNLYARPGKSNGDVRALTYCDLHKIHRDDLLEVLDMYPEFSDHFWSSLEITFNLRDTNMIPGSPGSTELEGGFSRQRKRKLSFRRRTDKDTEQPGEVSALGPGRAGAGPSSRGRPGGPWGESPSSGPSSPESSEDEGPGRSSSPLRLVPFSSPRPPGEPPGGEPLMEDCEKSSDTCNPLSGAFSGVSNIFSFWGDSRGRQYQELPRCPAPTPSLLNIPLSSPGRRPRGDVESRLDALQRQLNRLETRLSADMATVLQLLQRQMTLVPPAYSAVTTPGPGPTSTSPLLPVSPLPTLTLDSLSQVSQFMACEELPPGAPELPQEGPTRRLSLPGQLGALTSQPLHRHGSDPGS
row,Compound,"hERG current change (%, negative = inhibition) at 10uM"
1,CCC(Oc1ccccc1)C(=O)Nc1ncc([N+](=O)[O-])s1 (stereo not shown),30%
2,Cc1ccc2cc(CCNC(=O)C(C)C)c(=O)[nH]c2c1,-2.85%
3,Cc1cccc(N2CCN(C(=O)C3CCN(S(=O)(=O)c4cccc5nsnc45)CC3)CC2C)c1 (stereo not shown),-15.3%
4,NC(=O)C1CCN(C(=O)COc2ccc3ccccc3c2Br)CC1,0.834%
5,COC(=O)/C(C#N)=C/c1c(N2CCN(Cc3ccc4c(c3)OCO4)CC2)nc2c(C)cccn2c1=O,-41%
6,O=[N+]([O-])c1ccc(C2CC(c3ccccc3)=Nc3ccccc3S2)cc1 (stereo not shown),-26.3%
7,CCN(CCCl)Cc1ccccc1Br.Cl,16.3%
8,COc1ccc(CNC(=O)c2c(O)c3cccc4c3n(c2=O)CCC4)cc1OC,16.1%
9,O=C(OC1CCOC1=O)c1cc(-c2cccs2)nc2ccccc12 (stereo not shown),1.05%
10,N#Cc1cccc(NC(=O)CN2NS(=O)(=O)c3ccccc3C2=O)c1,13.2%
11,CCC(=O)N1c2ccc(S(=O)(=O)CCC(=O)NCc3ccc4c(c3)OCO4)cc2CC1C (stereo not shown),8.01%
12,CC1CCc2sc(C(=O)OCC(=O)NCc3ccccc3)cc2C1 (stereo not shown),24.5%
13,Cc1ccccc1-c1nc(CS(=O)(=O)CC(=O)NCCCN2CC(C)CC(C)C2)c(C)o1 (stereo not shown),-45.1%
14,CCN(C(=O)C1CCN(c2nc(-c3ccc(OC)cc3)no2)CC1)c1ccc(OC)cc1,-27.7%
15,COc1ccc(S(=O)(=O)N2CCOCC2)cc1NC(=O)CC1CC2CCC1C2 (stereo not shown),6.5%
16,Cc1ccc(/C=C2\SC(=S)N(CCCC(=O)Nc3ccccn3)C2=O)cc1,15.2%
17,O=C(c1cccc(S(=O)(=O)N2CCOCC2)c1)N(CCO)Cc1ccccc1,-19.8%
18,O=C(CNC(=O)c1ccc(Cl)cc1Cl)OCc1ccccc1,17.4%
19,O=c1[nH]c(=S)[nH]c2sccc12,12.4%
20,COc1ccc(Br)c2oc(SC)cc(=O)c12,-5.41%
21,CC(C)CN1C(=O)c2ccc(C(=O)NCc3ccc4c(c3)OCO4)cc2C1=O,13.6%
22,Cc1cc(Nc2ccc(F)c(Cl)c2)n2nc(C)nc2n1,-18%

row,Compound,"hERG current change (%, negative = inhibition) at 10uM"
1,COc1cccc(C2C3=C(CCCC3=O)Nc3nc(-c4cc(OC)c(OC)c(OC)c4)nn32)c1 (stereo not shown),0.87%
2,O=C(O)Cc1nc(-c2cccnc2)sc1-c1ccc(Br)cc1,38.1%
3,CCC/C=C(\CCC)C(NS(=O)(=O)c1cccc2cccnc12)c1ccc(C(=O)OC)cc1 (stereo not shown),3.35%
4,C/C(=N\NC(=O)CSc1nnc(C)s1)c1ccc(O)cc1,5.38%
5,CC(/C=C1\SC(=S)N(C(C(=O)O)C(C)C)C1=O)=C\c1ccccc1 (stereo not shown),3.88%
6,C=CCn1c(CCCNC(=O)C(C)(C)C)nc2ccccc21,18.2%
7,CN(C)CCCn1c(N)c(C#N)c2nc(C#N)c(C#N)nc21,14.6%
8,Cc1cc(C)c(S(=O)(=O)N2CCCOC2CNC(=O)C(=O)NCc2ccco2)c(C)c1 (stereo not shown),5.27%
9,COc1ccc(N2CCN(C(=O)[C@H](Cc3c[nH]c4ccccc34)NC(C)=O)CC2)cc1,7.32%
10,NC(=O)CC[C@H](NC(=O)c1ccc(F)cc1)C(=O)OCC(=O)Nc1c(F)c(F)c(F)c(F)c1F,-6.21%
11,Cn1c(=O)c(Sc2ccc(Cl)cc2)c(O)c2ccccc21,24%
12,COc1ccccc1-n1c2c(cc(C(=O)N3CCC(C)CC3)c1=O)C(=O)CC(C)(C)C2,-9.14%
13,O=C(CCc1nnc(C2CCCCC2)o1)N1CCN(C2CCCCC2)CC1,10.4%
14,COc1cccc(OCc2cc(C(=O)NC(C)c3cnn(C)c3C)no2)c1 (stereo not shown),-2.65%
15,Cc1nn(-c2nc3ccccc3s2)c(N)c1-c1ccc(Cl)cc1,24.1%
16,O=C(CCN1C(=O)c2ccccc2C1=O)Nc1ccncc1,-0.744%
17,O=C1C(Cc2ccccc2)S/C(=N/N=C/c2ccco2)N1c1ccccc1 (stereo not shown),13%
18,CCOc1ccc2nc(SCC(=O)Nc3ncccn3)[nH]c2c1,8.99%
19,O=C(Nc1c(C(=O)O)[nH]c2ccccc12)NC1CCCCC1,5.81%
20,CCOc1ccc(CCNC(=O)c2sc3nc4n(c(=O)c3c2C)CCC4)cc1,-6.82%
21,Cc1ccsc1/C=N/NC(=O)c1nnn(-c2nonc2N)c1CN(C)c1ccccc1,21.8%
22,Cc1cc(NC(=O)CN(C)S(=O)(=O)c2cccc(Cl)c2)no1,-14.8%

row,Compound,"hERG current change (%, negative = inhibition) at 10uM"
1,CCCN(C(=O)CSc1nnnn1C)C1CCS(=O)(=O)C1 (stereo not shown),10.3%
2,CCC(=O)Nc1cc(C)c(NC(=O)c2ccco2)cn1,6.77%
3,COC(=O)Cn1nnc2c(cnn2-c2ccccc2)c1=O,6.88%
4,Cc1c(CCOC(=O)CC23CC4CC(CC(C)(C4)C2)C3)sc[n+]1Cc1ccc([N+](=O)[O-])cc1.[Br-],-87.8%
5,C/C(=N\NC(=O)c1ccc(N/N=C(\C)c2ccncc2)cc1)c1ccncc1.O=S(=O)(O)O,15.1%
6,Cc1nn(Cc2c(Cl)cccc2Cl)c(C)c1NC(=O)c1sc2ccccc2c1Cl,13.4%
7,Cc1ccc(N2C(=O)[C@@H]3C(c4ccc(F)cc4)=NO[C@@H]3C2=O)cc1,-2.56%
8,COC(=O)c1nc2n(n1)C(c1ccc(OC)c(OC)c1)C(C(=O)OC1CCCCC1)=C(C)N2 (stereo not shown),-11.1%
9,O=C(Nc1ccc2c(c1)OCCO2)c1cnc2n(c1=O)CCS2,0.938%
10,Cc1ccc(CSCC(=O)NCc2cccs2)cc1,-2.02%
11,CSc1nncn1/N=C/c1ccc([N+](=O)[O-])cc1,-30.7%
12,CSc1ccc(Cl)c(C(=O)Nc2ccc(OCC(N)=O)cc2)c1,-13.8%
13,CC(C)(C)c1ccc(OCCSc2nc3ccccc3n2CC(=O)O)cc1,20.1%
14,O=C1CC(C(=O)N2CCOCC2)C2(CCCC2)O1 (stereo not shown),5.1%
15,O=C(O)c1cc2n(n1)C(C(F)(F)F)CC(C1CC1)N2 (stereo not shown),-9.42%
16,Cc1cc(C(F)F)n2nc(C(=O)Nc3ccc(S(=O)(=O)NC45CC6CC(CC(C6)C4)C5)cc3)nc2n1,-8.28%
17,O=C1NC2(CCCCC2)C(=O)N1CC(=O)N(Cc1ccccc1)c1ccccc1,-10.9%
18,C=CCN1C(=O)/C(=C2/Sc3ccc(OC)cc3N2CC)SC1=S,24.1%
19,Cl.O=C(c1ccccc1)N1CCN(CC(O)COc2cccc3ccccc23)CC1 (stereo not shown),-28.1%
20,O=C1N/C(=N/O)S/C1=C\c1ccccc1-n1cccn1,5.29%
21,CCCCN1C(=O)CCC(C(=O)O)C1c1ccc(OC)cc1 (stereo not shown),-6.12%
22,CC(C)=CCN1CCN(Cc2nc(C(C)C)cs2)CC1CCO (stereo not shown),-12.9%

row,Compound,"hERG current change (%, negative = inhibition) at 10uM"
1,CCc1nnc(NC(=O)c2ccc(S(=O)(=O)N(CC)Cc3ccccc3)cc2)o1,-12.9%
2,Cc1ccc(NC(=O)C2CC2c2ccccc2)cc1 (stereo not shown),2.96%
3,COc1ccc(NS(=O)(=O)c2cccc(NC(=O)CCC(=O)c3ccc(Cl)cc3)c2)cc1,3.74%
4,COc1ccc(/C=C/C(=O)Nc2cccnc2)cc1OC,24.9%
5,CC1(C)OC(=O)N2CCc3ccccc3C21C (stereo not shown),-7.73%
6,COc1ccc(CCC(=O)Nc2nc3ccccc3[nH]2)cc1,14.3%
7,Cc1ccc(OC(=O)C2c3ccccc3Oc3ccccc32)cc1C,13.8%
8,Cc1cccc(NC(=S)NNC(=O)c2ccccc2OC(F)F)c1,19.2%
9,Cc1cc2ccccc2n1CCNC(=O)C1CCCC1,10.2%
10,CCC(Sc1ncccc1C(=O)OCCN1CCCC1=O)C(=O)NCc1ccco1 (stereo not shown),-9.56%
11,C=CCNCCCOc1ccc(Cl)cc1Br.O=C(O)C(=O)O,-42.6%
12,CC(=O)Nc1ccc(-n2c(C)c(C(C)=O)c(C(C)=O)c2C)cc1,7.02%
13,COC(=O)c1cc(C(C)=O)c(C)[nH]c1=O,37.9%
14,Cn1cnc2c1c(=O)n(Cc1ccc(F)cc1Cl)c(=O)n2C,5.82%
15,CCOc1cc(C(=O)NC(C)C2CC3CCC2C3)cc(OCC)c1OCC (stereo not shown),-10.7%
16,COc1ccccc1CNC(=O)C1CCC(CNS(=O)(=O)c2ccc(NC(C)=O)cc2)CC1 (stereo not shown),16.5%
17,COc1ccc(Cn2c(C3CCCCC3)nc3c(c(=O)c4ccccc4n3C)c2=O)cc1,19.5%
18,CCCC(=O)N/C(N)=N/c1nc(C)c2ccccc2n1,-9.34%
19,Cc1ccc(-n2c(SCC(=O)NCC3CCCO3)nnc2-c2ccoc2C)cc1 (stereo not shown),-55.6%
20,CC(C)C1Cc2c(sc(NC(=S)NC(=O)c3ccccc3)c2C#N)CO1 (stereo not shown),3.07%
21,O=C(CSc1ccc2nnc(-c3ccccn3)n2n1)Nc1ccccc1,-23.4%
22,O=c1n(Cc2ccc(F)cc2)nc2n1-c1ccccc1SC2,1.87%
